# Measurements reported in the supplement of paper PMC3334620.
# The full ranking holds about 33,000 sequences; the median of “E-score (-0.5 to 0.5)” is about -0.013, and the highest 2% start at about 0.3. Some of the results follow.
# Target: T1, Msn1 (UniProt P22148)
# T1 sequence: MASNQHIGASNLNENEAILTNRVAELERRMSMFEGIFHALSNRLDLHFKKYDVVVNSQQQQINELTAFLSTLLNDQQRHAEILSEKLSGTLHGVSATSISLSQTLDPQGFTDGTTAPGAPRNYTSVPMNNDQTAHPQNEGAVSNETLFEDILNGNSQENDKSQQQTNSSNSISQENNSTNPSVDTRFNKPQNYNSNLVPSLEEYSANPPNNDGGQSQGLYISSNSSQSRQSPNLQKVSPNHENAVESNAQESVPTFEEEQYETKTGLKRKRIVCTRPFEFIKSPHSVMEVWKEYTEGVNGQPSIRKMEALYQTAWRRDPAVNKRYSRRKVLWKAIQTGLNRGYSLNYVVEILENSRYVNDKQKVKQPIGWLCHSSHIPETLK
# Test: PBM E-score (8-mer binding enrichment) (E-score (-0.5 to 0.5)); higher = stronger / more preferred TF binding; most listed sequences are background and not binding sites
# Settings: protein concentration: 200 nM; construct: GST-full length
# Outline: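 Yeast transcription factors, full-length or as DNA-binding domains, were expressed with a GST tag using PURExpress in vitro transcription/translation. At about 100-200 nM they were applied to universal all-10-mer Agilent arrays, double-stranded by primer extension on fresh or once-stripped slides. Fluorescent anti-GST detected bound protein, and masliner normalised the scans. E-scores for ungapped eight-base words, pooled with reverse complements, came from the Universal PBM Analysis Suite.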
row,Sequence,PBM E-score
1,AGCGCGGG,-0.0804
2,AACCGTCC,-0.0955
3,ATTAAGAG,-0.081
4,ACCAGCCC,-0.18
5,GATGCCAC,-0.0119
6,ACCTTAAC,0.123
7,AGTTTCGC,0.0708
8,GGTGTATA,-0.194
9,GCGGTGCC,-0.202
10,GATGCCTA,-0.027
11,CACTAGTA,0.138
12,GACTTACA,0.181
13,AACAGATA,0.139
14,ACCTATAA,0.0364
15,ATCGAGTC,-0.0128
16,CTGCTGTC,-0.0317
17,CAGTGGGG,-0.302
18,GAGGAAAC,0.0548
19,ACCAGGCC,0.0828
20,TAAATCGA,0.138
21,CCCGCTAA,-0.252
22,AACGCACT,-0.0232

row,Sequence,PBM E-score
1,CTGGGACA,0.444
2,CCGGCTAA,0.0358
3,GTAGCGCA,-0.107
4,GCGTATTA,0.0669
5,TAGCGCAA,0.0683
6,AAACTTCT,0.227
7,GGCAAGCC,-0.328
8,AATTTGTG,0.186
9,AAGGACAA,0.485
10,ACTCCCTA,-0.121
11,CGGCTTAG,-0.159
12,CCTAACAC,0.00579
13,ACGGTCTC,-0.067
14,AGTACGCC,-0.167
15,GGGTAGTA,-0.0745
16,CACATCAG,-0.119
17,ATTAGTCG,0.16
18,GAAGTCCA,0.212
19,GCATTTAA,0.0963
20,CCATCGCG,0.0581
21,CCGAGCAC,-0.0129
22,AGAAGGCA,-0.258

row,Sequence,PBM E-score
1,CACCCGAA,0.144
2,AATGCCGA,0.0819
3,GTCGTCGA,-0.042
4,AGCGCCGC,-0.145
5,AGCAGAGA,-0.216
6,GGCGAAAA,0.24
7,ACGAAATG,0.0933
8,ACGTAGGA,0.151
9,CTTTAGAA,0.121
10,ACGCTGTA,0.0519
11,CTATAATC,0.128
12,CTGCCGCA,-0.0788
13,TAACTATA,-0.00892
14,GCGGCAGC,-0.165
15,GCCCAGGA,-0.164
16,AATCGAAT,0.047
17,GACTAGCA,-0.0853
18,CGCACACC,-0.0652
19,ACGGCTTA,0.0134
20,ATCTACCG,0.0459
21,AACTAGAG,-0.0134
22,TGACTGAA,-0.0539

row,Sequence,PBM E-score
1,AGACACGA,0.158
2,GGGATGCA,-0.278
3,ACAATCTA,0.0825
4,GCTTAGCC,-0.241
5,CATCTGGG,0.119
6,GATACTCA,-0.00561
7,GACTCGCC,-0.0958
8,CCGAGTGA,0.113
9,ACTAGAGG,-0.281
10,ATCACTCA,-0.0853
11,GGGAGCGA,-0.219
12,GATCTAAA,-0.0173
13,TTAGGCAA,-0.0396
14,CCATACGG,-0.0434
15,ACAACACG,-0.00132
16,AGATTTAT,0.0411
17,GGGGACGA,-0.0119
18,AACATAAA,0.0678
19,AATTACAA,-0.00201
20,CTGAAAAC,0.101
